Reference: the supplement of paper PMC4967469
pIC50: −log10 of the molar value. The IC50 comes from the fitted curve, where viability falls to half of the control; where the fit passes the top or lowest dose, that dose stands as a limit. The AUC spans the tested range (256-fold, ending at the top dose) of the same fit: 1 means no effect, lower means more sensitive. For some assays here: The top dose, if marked as inferred, was derived from the fitted curves, not read from the paper.

How the values were obtained:
Assay in all cases: Viability of human cancer cell lines after 72 h of drug (GDSC screen)
FH535 = compound: Cc1cc([N+](=O)[O-])ccc1NS(=O)(=O)c1cc(Cl)ccc1Cl [FH535]; settings: top dose 32 µM; top dose inferred
Method: (§1)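 Human cancer cell lines in 384-well plates, medium with 10% serum, drug for 72 h over a 256-fold dose range (nine 2-fold or five 4-fold steps up to the top dose). Adherent lines were fixed and stained with the nucleic acid dye Syto60, suspension lines read with resazurin; signal relative to control wells, capped at 0 and 100%. One two-parameter sigmoid per drug and line, fitted in a mixed model over all curves with the slope shared within a line.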

Dasatinib = compound: Cc1nc(Nc2ncc(C(=O)Nc3c(C)cccc3Cl)s2)cc(N2CCN(CCO)CC2)n1 [Dasatinib]; settings: top dose 1.28 µM
Method: as §1

A-443654 = compound: Cc1n[nH]c2ccc(-c3cncc(OC[C@@H](N)Cc4c[nH]c5ccccc45)c3)cc12 [A-443654]; settings: top dose 1.024 µM; top dose inferred
Method: as §1

AT-7519 = compound: O=C(NC1CCNCC1)c1n[nH]cc1NC(=O)c1c(Cl)cccc1Cl [AT-7519]; settings: top dose 10.24 µM; top dose inferred
Method: as §1

XMD14-99 = compound: COc1cc(N2CCN(C)CC2)ccc1Nc1nc(N)c(C(=O)c2c(Cl)cccc2Cl)s1 [XMD14-99]; settings: top dose 10.24 µM; top dose inferred
Method: as §1

| Cell Line | AUC (FH535) | pIC50 (FH535) | AUC (Dasatinib) | pIC50 (Dasatinib) | AUC (A-443654) | pIC50 (A-443654) | AUC (AT-7519) | pIC50 (AT-7519) | AUC (XMD14-99) | pIC50 (XMD14-99) |
| --- | --- | --- | --- | --- | --- | --- | --- | --- | --- | --- |
| LNCaP-Clone-FGC (prostate, adherent) | 0.774 | 4.84 | 0.984 | < 5.89 | 0.92 | < 5.99 | 0.443 | 6.36 | 0.937 | < 4.99 |
| HAL-01 (lymphoblastic leukaemia, suspension) | 0.765 | 4.98 | 0.941 | < 5.89 | 0.973 | < 5.99 | 0.899 | < 4.99 | 0.865 | 5.13 |
| VA-ES-BJ (soft tissue, adherent) | 0.427 | 5.90 | 0.399 | 7.38 | 0.623 | 6.84 | 0.885 | < 4.99 | 0.986 | < 4.99 |
| GI-1 (glioma, adherent) | 0.449 | 5.84 | 0.804 | 6.21 | 0.69 | 6.67 | 0.49 | 6.22 | 0.985 | < 4.99 |
| SF539 (glioma, adherent) | 0.772 | 4.95 | 0.912 | < 5.89 | 0.948 | < 5.99 | 0.546 | 6.07 | 0.99 | < 4.99 |
| MZ7-mel (melanoma, adherent) | 0.527 | 5.62 | 0.697 | 6.53 | 0.744 | 6.48 | 0.596 | 5.92 | 0.946 | < 4.99 |
| OVCAR-4 (ovary, adherent) | 0.614 | 5.32 | 0.697 | 6.42 | 0.684 | 6.56 | 0.699 | 5.51 | 0.976 | < 4.99 |
| SNB75 (glioma, adherent) | 0.805 | 4.58 | 0.402 | 7.42 | 0.582 | 6.92 | 0.592 | 5.89 | 0.978 | < 4.99 |
| COLO-829 (melanoma, adherent) | 0.351 | 6.20 | 0.453 | 7.25 | 0.933 | < 5.99 | 0.864 | < 4.99 | 0.971 | < 4.99 |
| NB-4 (acute myeloid leukaemia, suspension) | 0.719 | 5.14 | 0.991 | < 5.89 | 0.797 | 6.41 | 0.17 | 7.08 | 0.839 | 5.28 |
| KOPN-8 (B-cell leukaemia, suspension) | 0.674 | 5.25 | 0.927 | < 5.89 | 0.704 | 6.66 | 0.358 | 6.56 | 0.943 | < 4.99 |
| PL-21 (acute myeloid leukaemia, suspension) | 0.73 | 4.99 | 0.982 | < 5.89 | 0.716 | 6.53 | 0.224 | 7.07 | 0.945 | < 4.99 |
| KARPAS-422 (B-cell lymphoma, suspension) | 0.692 | 5.16 | 0.536 | 7.00 | 0.741 | 6.51 | 0.427 | 6.39 | 0.891 | < 4.99 |
| LB373-MEL-D (melanoma, adherent) | 0.509 | 5.68 | 0.839 | 6.07 | 0.797 | 6.33 | 0.88 | 4.99 | 0.99 | < 4.99 |
| RPMI-8402 (T-cell lymphoblastic leukaemia, suspension) | 0.7 | 5.18 | 0.909 | < 5.89 | 0.681 | 6.73 | 0.233 | 6.90 | 0.836 | 5.28 |
| CAS-1 (glioma, adherent) | 0.715 | 4.99 | 0.78 | 6.13 | 0.869 | < 5.99 | 0.969 | < 4.99 | 0.979 | < 4.99 |
| NCI-H1838 (lung adenocarcinoma, adherent) | 0.942 | < 4.49 | 0.808 | 6.07 | 0.964 | < 5.99 | 0.932 | < 4.99 | 0.979 | < 4.99 |
| SW684 (fibrosarcoma, adherent) | 0.816 | 4.53 | 0.684 | 6.47 | 0.952 | < 5.99 | 0.975 | < 4.99 | 0.98 | < 4.99 |
| MMAC-SF (melanoma, adherent) | 0.567 | 5.51 | 0.954 | < 5.89 | 0.872 | < 5.99 | 0.894 | < 4.99 | 0.987 | < 4.99 |
| NH-12 (neuroblastoma, adherent) | 0.793 | 4.78 | 0.984 | < 5.89 | 0.984 | < 5.99 | 0.881 | < 4.99 | 0.963 | < 4.99 |
